Laboratory results as given in patent publication US12472180B2, “Combinations for treatment of NAFLD/NASH and related diseases” (Pfizer Inc., priority 2020, dated 2025).

Legend:
Format in all cases: in vivo, human
[1] = tested on: adults with non-alcoholic fatty liver disease (NAFLD); assay: Phase 2A study: liver function tests; settings: 6 weeks; Cmpd A 15 mg, Cmpd D 300 mg Q12H
Source text: The LS Mean (and 90% CIs) percent change from placebo on Day 42 are given. Table 15 provides a statistical analysis of percent change from baseline in liver function tests on Day 42—FAS. […] FIG. 27a provides the plot for alanine aminotransferase (ALT); FIG. 27b provides the plot for aspartate aminotransferase (AST); FIG. 27c provides the plot for alkaline phosphotate; and FIG. 27d provides the plot for gamma glutamyl transferase (GGT).

[2] = tested on: adults with non-alcoholic fatty liver disease (NAFLD); assay: Phase 2A study: treatment emergent adverse events, safety and tolerability; settings: all causalities, safety analysis set
[3] = tested on: adults with non-alcoholic fatty liver disease (NAFLD); assay: Phase 2A study: other fasting serum lipids and apolipoproteins; settings: Day 42; Cmpd A 15 mg, Cmpd D 300 mg Q12H
Source text: A summary of the statistical analysis of percent change from baseline in other fasting serum lipid parameters on day 42—FAS is provided in Table 13.
The LS Mean (and 90% CIs) percent change from placebo on Day 42 are given.

[4] = tested on: adults with non-alcoholic fatty liver disease (NAFLD); assay: Phase 2A study: platelets; settings: Day 42, Cmpd A 15 mg, Cmpd D 300 mg Q12H
Source text: Table 17 provides a statistical analysis of percent change from baseline in platelets on Day 42—FAS.

SMILES | GGT change from baseline over the study (in words) [1] | alkaline phosphatase course over the study (in words) [1] | Subjects discontinued from study due to adverse events, n (%) [2] | Subjects discontinued study drug due to AE and continue Study, n (%) [2] | Subjects with adverse events, n (%) [2] | Subjects with dose reduced or temporary discontinuation due to adverse events, n (%) [2] | Subjects with serious adverse events, n (%) [2] | Subjects with severe adverse events, n (%) [2] | Subjects discontinued study drug due to AE and continue Study, n (%) ([2]; listed as Cmpd D) | LDL-Cholesterol % Change from Placebo, LS Mean [3] | Platelets % Change from Placebo, LS Mean ([4]; listed as Cmpd D) | Subjects discontinued from study due to adverse events, n (%) ([2]; listed as Cmpd A) | Platelets % Change from Placebo, LS Mean ([4]; listed as Cmpd A)
CCOc1cccnc1Oc1cncc(-c2ncc(C(=O)N[C@H]3CCOC3)cn2)c1 [Compound D, (S)-2-(5-((3-ethoxypyridin-2-yl)oxy)pyridin-3-yl)-N-(tetrahydrofuran-3-yl)pyrimidine-5-carboxamide] | no significant change from baseline | clear and statistically significant decrease | 1 (3.6) | discontinued from study drug due to mild AE of creatine kinase and AST elevations | 10 (35.7) | 0 | 0 | 0 | 1 (3.6) | numerical lowering trends | 7.50 (−0.99, 16.71) % | – | –
COc1cc(C(=O)N2CCC3(CC2)CC(=O)c2c(cnn2C(C)C)C3)cc(-c2ccc(C(=O)O)cc2)n1 [Compound A, 4-(4-(1-isopropyl-7-oxo-1,4,6,7-tetrahydrospiro[indazole-5,4′-piperidine]-1′-carbonyl)-6-methoxypyridin-2-yl)benzoic acid] | an increase observed | clear and statistically significant elevation | discontinued due to severe AE of TG elevation | 0 | 10 (34.5) | 1 (3.4) | 0 | 1 (3.4) | – | statistically significantly decreased | – | 1 (3.4) | −7.12 (−14.51, 0.91) %
